This is an account of results in ChEMBL document CHEMBL4888484, “Replenishing the malaria drug discovery pipeline: Screening and hit evaluation of the MMV Hit Generation Library 1 (HGL1) against asexual blood stage Plasmodium falciparum ,using a nano luciferase reporter read-out” (2022).

Molecules are shown by their SMILES. Hit rate of the full screen: of about 150,000 compounds, about 540 (0.36%) showed an effect of 50% or more. The list shows a part of the results.

The test system of this assay is Plasmodium falciparum. The assay can be described thus: Primary screen in NF54 nanoGlo assay, in single point, at 2uM, 72h; a lower Z score goes with more inhibition. Format: functional, Erythrocyte. The settings on record: timepoint 72 hour.
The term % Inhibition denotes the drop in the measured response relative to a control, in per cent. With `CN(C)c1ccncc1C(=O)N1CCN(Cc2ccncc2)CC1`, the “% Inhibition” value is given as -1% and the Z score is on record as 0.07.
The like results for `COc1cc(OC)c(NC(=O)N(C)CCc2c(C)nn(C)c2C)cc1Cl` were, in that order, -9% and 0.89.
Turning to `CCCC1(CN=C(N)N(C)C2CC2)CCC1`, the “% Inhibition” value stood at 5% and the Z score is -0.45.
The like results for `O=C(CCc1ccccc1)N1CCC2(CC[C@@H]2N2CCOCC2)CC1` were, in that order, -3% and 0.51.
The like results for `C[C@H]1COc2c(N3CCN(C)CC3)c(F)cc3c(=O)c(C(=O)NCc4cccc(Cl)c4)cn1c23` were, in that order, -12% and 1.02.
The like results for `CCCC[C@H](NC(=O)c1cc(C)c(CC)n(C)c1=O)C(N)=O` were, in that order, -9% and 1.44.
For `CCCNC(=O)CCNC(=O)N[C@H]1CCCC12CCOCC2`, the “% Inhibition” value is given as -13% and the Z score amounted to 2.37.
The like results for `Cc1cccc(-c2nc3nc(C)cc(N4CCCCC4)n3n2)c1` were, in that order, -23% and 4.02.
The like results for `NC(=O)CN1CCC(Nc2nc(-c3ccc(F)cc3)cs2)CC1` were, in that order, 7% and -0.79.
Consider `Cc1cccc(-c2ccc(C(=O)N3CCOC4CCCCC43)c(=O)[nH]2)c1` (stereo not given), for which the “% Inhibition” value is listed as -1% and the Z score came to 0.1.
As to `CC(C)(C)OC(=O)N1CCC2CCCCC2C1C(=O)O` (stereo not given), the “% Inhibition” value is recorded as -8% and the Z score amounted to 0.79.
Consider `Cc1ccc(OCCS(=O)(=O)N2CCNC[C@@H]2C)cc1`, for which the “% Inhibition” value is -17% and the Z score is recorded as 2.86.
The like results for `Cn1nc(O)c2c1CN(CC(=O)N1CCCc3ccccc31)CC2` were, in that order, -6% and 0.64.
Take `CCn1cc(CNC(=O)N2C[C@H]3CCC[C@@H](C2)N(C)C3=O)cn1`: the “% Inhibition” value was -6% and the Z score was 0.85.
The like results for `Cc1cccc(CN2CCN(Cc3ccc(CO)o3)C[C@@H]2CCO)n1` were, in that order, -2% and 0.31.
The like results for `O=S(=O)(c1cccc2nsnc12)N1CCc2[nH]c3c(Br)cccc3c2C1` were, in that order, -3% and 0.33.
The like results for `O=C(Cn1nnc(-c2ccc3c(c2)OCO3)n1)Nc1ccc(F)cc1F` were, in that order, -15% and 2.03.
As for `CCCc1cnc(C)nc1N1CCC(N2CCCC2)CC1`, the “% Inhibition” value is -8% and the Z score stood at 1.59.
The like results for `CCNC(=O)CN(CC)Cc1nnc(C(C)(C)C)o1` were, in that order, 0% and 0.01.
The like results for `COc1ccc(CNCCC(=O)NCc2ccco2)c(F)c1F` were, in that order, -6% and 0.79.
On to `COC(=O)[C@H](NC(=O)N1CCOCC1)c1ccccc1`, for which the “% Inhibition” value is given as -19% and the Z score came to 2.41.
The like results for `O=S(=O)(c1ccc(Cl)cc1)N1CCOC[C@H](Oc2cccnc2)C1` were, in that order, 12% and -1.35.
The like results for `O=C(CCC1CCN(c2cc(NC3CC3)ncn2)CC1)NCc1ccc(N2CCOCC2)cc1` were, in that order, 32% and -3.59.
Take `CCN(CC)S(=O)(=O)c1ccc(F)c(C(=O)OCc2cc(Cl)c3c(c2)OCCO3)c1`: the “% Inhibition” value is reported as -5% and the Z score turned out to be 0.6.
The like results for `O=C1C2CC=CCC2C(=O)N1c1ccc(N2C(=O)C3CC=CCC3C2=O)c(Cl)c1` (stereo not given) were, in that order, -5% and 0.63.
For `COC(=O)c1cc(NC(=O)COc2ccc(F)cc2)cn1Cc1ccccc1`, the “% Inhibition” value is on record as -8% and the Z score was 1.29.
As to `O=C1C(NC(CO)c2ccccc2)CCN1c1c(F)cccc1F` (stereo not given), the “% Inhibition” value was -7% and the Z score is recorded as 0.75.
Consider `Cc1cc(C(=O)NCCOc2c(C)cccc2C)c2nc3n(c2n1)CCCCC3`, for which the “% Inhibition” value is listed as -26% and the Z score is on record as 3.02.
With `Cc1ncsc1CN(C)c1nc2ccccc2[nH]1`, the “% Inhibition” value is on record as -2% and the Z score is 0.26.
The like results for `NC(=O)c1cc(OC2CCN(c3ncccc3C(F)(F)F)CC2)ccn1` were, in that order, -2% and 0.19.
The like results for `O=C(NC1CCCCCC1)c1nnc(-c2cccc(Cl)c2)o1` were, in that order, -1% and 0.11.
Consider `Cc1cc(NC(=O)N2CCNC(=O)[C@@H]2C)n(CCC(C)C)n1`, for which the “% Inhibition” value was -9% and the Z score was determined as 1.41.
As to `Cc1cnc2c(C(=O)N3CCC[C@H](Cc4ccc(C(=O)O)cc4)C3)cnn2c1`, the “% Inhibition” value is on record as -7% and the Z score is given as 1.18.
The like results for `Cc1cc(C(=O)N2CCC(C)(c3noc(-c4cccnc4)n3)CC2)c(C)n1Cc1ccc(F)cc1` were, in that order, -11% and 1.46.
The like results for `COc1ccc(C(=O)N[C@H]2CO[C@@H](CN3CCC(F)(F)C3)[C@@H]2O)cc1` were, in that order, -5% and 0.85.
The like results for `Cc1nn(C)cc1CN(C)c1cc(C(=O)N2CCOCC2)ccn1` were, in that order, 6% and -1.05.
In the case of `COCCCC(=O)N(c1cccc(N2CCCC2)c1)C1CCCCCC1`, the “% Inhibition” value turned out to be 1% and the Z score is -0.09.
The like results for `Cc1noc(-c2ccc(C(C)(C)C)cc2)c1C(=O)NCc1cc(F)cc(F)c1` were, in that order, -7% and 1.18.
The like results for `CC(C)CNC(=O)Cc1ccc(F)cc1` were, in that order, -10% and 1.68.
In the case of `CC(C)(C)c1coc(CC2CCN(C(=O)Cc3ccoc3)CC2)n1`, the “% Inhibition” value is -1% and the Z score was determined as 0.13.
The like results for `CCc1cc(NC(=O)N2C[C@@H](C)[C@](C)(C(=O)OC)C2)n(C)n1` were, in that order, -14% and 1.62.
The like results for `COc1ccc(CCNC(=O)N(C)C)cc1OC` were, in that order, 3% and -0.34.
The like results for `O=C(OCC(=O)N1CCCCCCC1)C1CCCCC1C(=O)N1CCc2ccccc21` (stereo not given) were, in that order, -5% and 0.57.
For the compound `Cn1ncn(CC(=O)c2ccc3c(c2)CCO3)c1=O`, the “% Inhibition” value is listed as -7% and the Z score was 0.82.
The like results for `Cc1nnc(N(C)C(=O)c2sc(C)nc2C)s1` were, in that order, -2% and 0.44.
The like results for `CN(CC(=O)NCc1cccs1)C(=O)c1ncoc1-c1cccs1` were, in that order, -7% and 0.91.
Regarding `COc1cc(CN(C)[C@H]2CCc3nn(C)c(=O)n3CC2)cc(OC)c1`, the “% Inhibition” value is reported as -3% and the Z score came to 0.56.
For `CC1(C)CN(CCc2c[nH]nn2)CCc2ccccc21`, the “% Inhibition” value is reported as -3% and the Z score is 0.35.
The like results for `Nc1ccnc(C(F)(F)F)c1C(=O)c1ccccc1` were, in that order, -14% and 2.78.
Turning to `Cc1c(N)nnn1CCOc1ccc(F)cc1`, the “% Inhibition” value was determined as 2% and the Z score was -0.3.
The like results for `CN(C(=O)c1ccc(Cl)c(Cl)c1)c1nc2ccccc2o1` were, in that order, -3% and 0.22.
Take `c1ccc2nc(NCCCC3(C4OCCO4)CCOCC3)cnc2c1`: the “% Inhibition” value is -16% and the Z score is 2.06.
As to `Cc1cccc([C@@H]2CCCN2C(=O)c2c(C)nn(C)c2C)n1`, the “% Inhibition” value was determined as 4% and the Z score was -0.54.
Turning to `Cc1nn(C)c(C)c1C(=O)N1CCC[C@H](Oc2ncc(Cl)cn2)C1`, the “% Inhibition” value is 0% and the Z score came out at 0.05.
The like results for `O[C@@]1(C(F)(F)F)CCN(Cc2cc(-c3ccccc3)on2)C1` were, in that order, -8% and 1.07.
